From paper PMC12820563, “FoxP3 forms a head-to-head dimer in vivo and stabilizes its multimerization on adjacent microsatellites” come the findings set out here.

This is one part of the list.

The assay has as its target T1, MBP-FoxP1dN (Mus musculus, UniProt P58462 326-579).
T1 sequence: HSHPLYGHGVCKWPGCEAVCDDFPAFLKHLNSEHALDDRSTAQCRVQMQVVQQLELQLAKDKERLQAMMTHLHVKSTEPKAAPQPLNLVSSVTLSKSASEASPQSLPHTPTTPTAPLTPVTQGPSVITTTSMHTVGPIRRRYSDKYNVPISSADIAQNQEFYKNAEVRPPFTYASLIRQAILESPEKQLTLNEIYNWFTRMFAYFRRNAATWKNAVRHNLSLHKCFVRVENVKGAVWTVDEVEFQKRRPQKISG
Briefly: PD-seq (MBP pull-down with sequencing); 20 mM Tris-HCl pH 7.5, 100 mM NaCl, 1.5 mM MgCl2, 0.4 uM protein, 0.1 uM dsDNA library, 30 min, room temperature, amylose pull-down; high values mean tight binding. The settings on record: protein: recombinant; tags: His6-MBP; chain copies: 2; dsDNA, one strand shown. In short, it runs like this:
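A fragment of mouse FoxP3 or FoxP1 without its N-terminus, carrying a His6-MBP tag and produced in E. coli, was combined at 0.4 µM with a 0.1 µM degenerate double-stranded DNA library filled in with Klenow. The mixture sat for 30 min at room temperature in Tris pH 7.5 buffer containing NaCl and MgCl2. Protein–DNA complexes were captured on amylose resin, washed three times, and the DNA was freed with proteinase K, barcoded by PCR and sequenced on Illumina. Binding is expressed as reads-per-million enrichment of pull-down over input, with replicates pooled.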
“GATGATTGTTCTCCCAGCTGATGAATTAAGGGTGTCGAGTAAACAAATTTTCCTAATCTTTCTGTTCAAGCGCCATCTAC”: the binding signal was 0.898 RPM ratio (pull-down/input).

Regarding “GATGATTGTTCTCCCAGCTGATGAATTCGAGATGTCGAGTAAACAAATTTTCCTAATCTTTCTGTTCAAGCGCCATCTAC”, the binding signal is 0.873 RPM ratio (pull-down/input).

With “GATGATTGTTCTCCCAGCTGATGAATTGCCCGTTTCGAGTAAACAAATTTTCCTAATCTTTCTGTTCAAGCGCCATCTAC”, the binding signal is 0.92 RPM ratio (pull-down/input).

Take “GATGATTGTTCTCCCAGCTGATGAATTACTGGAATCGAGTAAACAAATTTTCCTAATCTTTCTGTTCAAGCGCCATCTAC”: the binding signal was 1.07 RPM ratio (pull-down/input).

For the sequence “GATGATTGTTCTCCCAGCTGATGAATTCAATTCATCGAGTAAACAAATTTTCCTAATCTTTCTGTTCAAGCGCCATCTAC”, the binding signal is 0.919 RPM ratio (pull-down/input).

On to “GATGATTGTTCTCCCAGCTGATGAATTCGCGCTTTCGAGTAAACAAATTTTCCTAATCTTTCTGTTCAAGCGCCATCTAC”, for which the binding signal was 0.94 RPM ratio (pull-down/input).

For the sequence “GATGATTGTTCTCCCAGCTGATGAATTAACCACATCGAGTAAACAAATTTTCCTAATCTTTCTGTTCAAGCGCCATCTAC”, the binding signal was 1.12 RPM ratio (pull-down/input).

Turning to “GATGATTGTTCTCCCAGCTGATGAATTATTGAACTCGAGTAAACAAATTTTCCTAATCTTTCTGTTCAAGCGCCATCTAC”, the binding signal is 0.961 RPM ratio (pull-down/input).

For “GATGATTGTTCTCCCAGCTGATGAATTTGTCCACTCGAGTAAACAAATTTTCCTAATCTTTCTGTTCAAGCGCCATCTAC”, the binding signal is 1.11 RPM ratio (pull-down/input).

“GATGATTGTTCTCCCAGCTGATGAATTGGCATGCTCGAGTAAACAAATTTTCCTAATCTTTCTGTTCAAGCGCCATCTAC”: the binding signal was 0.93 RPM ratio (pull-down/input).

Turning to “GATGATTGTTCTCCCAGCTGATGAATTCAAGTGGTCGAGTAAACAAATTTTCCTAATCTTTCTGTTCAAGCGCCATCTAC”, the binding signal was 0.772 RPM ratio (pull-down/input).

In the case of “GATGATTGTTCTCCCAGCTGATGAATTTCGGACGTCGAGTAAACAAATTTTCCTAATCTTTCTGTTCAAGCGCCATCTAC”, the binding signal is 0.832 RPM ratio (pull-down/input).

As to “GATGATTGTTCTCCCAGCTGATGAATTGAGCATATCGAGTAAACAAATTTTCCTAATCTTTCTGTTCAAGCGCCATCTAC”, the binding signal was 0.915 RPM ratio (pull-down/input).

Consider “GATGATTGTTCTCCCAGCTGATGAATTGAACAAATCGAGTAAACAAATTTTCCTAATCTTTCTGTTCAAGCGCCATCTAC”, for which the binding signal is 1.12 RPM ratio (pull-down/input).

For the sequence “GATGATTGTTCTCCCAGCTGATGAATTAACTCCTTCGAGTAAACAAATTTTCCTAATCTTTCTGTTCAAGCGCCATCTAC”, the binding signal was 0.846 RPM ratio (pull-down/input).

In the case of “GATGATTGTTCTCCCAGCTGATGAATTGAACTTATCGAGTAAACAAATTTTCCTAATCTTTCTGTTCAAGCGCCATCTAC”, the binding signal is 0.878 RPM ratio (pull-down/input).

As for “GATGATTGTTCTCCCAGCTGATGAATTTCATGTATCGAGTAAACAAATTTTCCTAATCTTTCTGTTCAAGCGCCATCTAC”, the binding signal is 1.06 RPM ratio (pull-down/input).

Regarding “GATGATTGTTCTCCCAGCTGATGAATTCTGCAAGTCGAGTAAACAAATTTTCCTAATCTTTCTGTTCAAGCGCCATCTAC”, the binding signal was 0.822 RPM ratio (pull-down/input).

As to “GATGATTGTTCTCCCAGCTGATGAATTCGCGCTGTCGAGTAAACAAATTTTCCTAATCTTTCTGTTCAAGCGCCATCTAC”, the binding signal was 0.873 RPM ratio (pull-down/input).

As to “GATGATTGTTCTCCCAGCTGATGAATTAGTCCATTCGAGTAAACAAATTTTCCTAATCTTTCTGTTCAAGCGCCATCTAC”, the binding signal is 0.914 RPM ratio (pull-down/input).

For the sequence “GATGATTGTTCTCCCAGCTGATGAATTCTTCCTCTCGAGTAAACAAATTTTCCTAATCTTTCTGTTCAAGCGCCATCTAC”, the binding signal is 0.877 RPM ratio (pull-down/input).

Take “GATGATTGTTCTCCCAGCTGATGAATTGCAAAGCTCGAGTAAACAAATTTTCCTAATCTTTCTGTTCAAGCGCCATCTAC”: the binding signal is 1.09 RPM ratio (pull-down/input).

With “GATGATTGTTCTCCCAGCTGATGAATTTGCTAGCTCGAGTAAACAAATTTTCCTAATCTTTCTGTTCAAGCGCCATCTAC”, the binding signal was 0.906 RPM ratio (pull-down/input).

Regarding “GATGATTGTTCTCCCAGCTGATGAATTTGGGGGCTCGAGTAAACAAATTTTCCTAATCTTTCTGTTCAAGCGCCATCTAC”, the binding signal is 0.823 RPM ratio (pull-down/input).

As for “GATGATTGTTCTCCCAGCTGATGAATTTTGCTGATCGAGTAAACAAATTTTCCTAATCTTTCTGTTCAAGCGCCATCTAC”, the binding signal is 1.29 RPM ratio (pull-down/input).

For “GATGATTGTTCTCCCAGCTGATGAATTTGAAGCCTCGAGTAAACAAATTTTCCTAATCTTTCTGTTCAAGCGCCATCTAC”, the binding signal was 0.813 RPM ratio (pull-down/input).

For “GATGATTGTTCTCCCAGCTGATGAATTGAGATCTTCGAGTAAACAAATTTTCCTAATCTTTCTGTTCAAGCGCCATCTAC”, the binding signal was 0.805 RPM ratio (pull-down/input).

On to “GATGATTGTTCTCCCAGCTGATGAATTTAGCACTTCGAGTAAACAAATTTTCCTAATCTTTCTGTTCAAGCGCCATCTAC”, for which the binding signal is 1.02 RPM ratio (pull-down/input).

Turning to “GATGATTGTTCTCCCAGCTGATGAATTGTATAACTCGAGTAAACAAATTTTCCTAATCTTTCTGTTCAAGCGCCATCTAC”, the binding signal was 1.04 RPM ratio (pull-down/input).

Turning to “GATGATTGTTCTCCCAGCTGATGAATTTAGTGTTTCGAGTAAACAAATTTTCCTAATCTTTCTGTTCAAGCGCCATCTAC”, the binding signal is 1.15 RPM ratio (pull-down/input).

As for “GATGATTGTTCTCCCAGCTGATGAATTGTAGTAATCGAGTAAACAAATTTTCCTAATCTTTCTGTTCAAGCGCCATCTAC”, the binding signal is 1.58 RPM ratio (pull-down/input).

Turning to “GATGATTGTTCTCCCAGCTGATGAATTGCTTACTTCGAGTAAACAAATTTTCCTAATCTTTCTGTTCAAGCGCCATCTAC”, the binding signal was 1.48 RPM ratio (pull-down/input).
